Our source for the self-cleavage values is the RNAGym collection of RNA variant scans (doi:10.7554/elife.90254).

First the molecules themselves.
B1: OR4K15 (parent)
chain: GUUAACGGUCAUAGGCCAUGGAAACUAGGAGCACCAUUUCGCUGCCAGUGAAGAAAUGAACAAAGAAAAUCUGGGCCAGGCAGGCAUCAAAAGAAAUAGUCUUGCGCUCAACCAGAAAGUCUGUAAUCAUUUUAAGGGUA

The source gives no read counts; variants with many changes may rest on few reads.

The variants in this data set derive from B1. The data set can be described thus: self-cleavage, relative activity (ratio to wild type); higher = more cleavage; in vitro, sequencing; the parent is a self-cleaving ribozyme.
Take G7A A13U A18U U37C A94G C109U U133A: the self-cleavage was 0.37.

As for A5U U57C A90G A114U, the self-cleavage turned out to be 0.04. Next, G7A U49C A51G A59G A126G U131C: 0.07; U9C A13G A51G: 0.82. Consider A5U U12C U37C U87A U97A, for which the self-cleavage was found to be 0.54. For C6U A27G C61U, the self-cleavage stood at 0.78. With A5G U12C U122A, the self-cleavage turned out to be 0.92. On to A5G U19C U57G A67G A91G, for which the self-cleavage amounted to 0.71. Regarding C6G U12A U38C, the self-cleavage amounted to 1.29.

G7U U37C U87A: the self-cleavage was found to be 1.62.

With U9C A22G A47G A94G A129G G137U, the self-cleavage amounted to 1.03. Regarding A5U A47G A54G U100C, the self-cleavage is 2.06.

For the variant A5G U70C A89G, the self-cleavage worked out at 0.99.

Take U9C A22G A36G U37C A59G A114G U132C: the self-cleavage came to 0.2.

Take A5G G83A A111G: the self-cleavage stood at 0.05. Turning to U9A U70C U100C, the self-cleavage worked out at 1.34. With U9A U37C A56G A114G, the self-cleavage stood at 0.47. Regarding A5U A11G A82U, the self-cleavage stood at 0.22. For A5U U49C A82G A86G A89C, the self-cleavage was found to be 0.08.

Take U9C A11G U100C: the self-cleavage came to 1.08. For U9C A18U U122A, the self-cleavage stood at 1.55. Turning to A5G G53A U103C U132C G138A, the self-cleavage turned out to be 0.99. As for U9A G41A U87A A98G U102C, the self-cleavage was 1.77.

U9A A78G U122C: the self-cleavage turned out to be 0.37. As for U9C A22C C40U C121U U127C, the self-cleavage was found to be 0.75. For the variant A5G U26C G53U A67G A82G, the self-cleavage amounted to 0.8. Turning to A5G U9C A23G A69G A86C U102C U108C U132G, the self-cleavage was 0.01.

Consider C6A U9A A18G U72A, for which the self-cleavage came out at 0.12. G7A A78U U122C: the self-cleavage was determined as 0.24.

G7A A30G A110G: the self-cleavage was determined as 0.15. Regarding A5G U103C A116G, the self-cleavage is 0.41. A5G U72C A86G A95U A110G: the self-cleavage came to 0.04.

For A5G U39C A110G, the self-cleavage is 0.37.

On to G7U A23G U39A A90G, for which the self-cleavage stood at 1.83. As to A5G U39C A54U, the self-cleavage was 1.18. Next, A5U A30G A63G: 1.12; U9C A13G A24G: 1.93. With G8A A30G A47G, the self-cleavage is 1.58. Next, U9A U57C A118G: 0.59; U9A U43C G80C U100C A110G U122C: 0.01. For the variant G7A A18G A30U A36U, the self-cleavage was determined as 0.96.

Take A5G U49C A69G A78G: the self-cleavage came out at 0.05. In the case of U9A A51G U70C A96G U120G, the self-cleavage came out at 0.3. With U9A U26C A78U A91G C105U, the self-cleavage came out at 0.02. The figure for A5G U38C A64U A96G U108C is 0.04; for G8A U43A A56G U130C it is 2.47; for G7A A52G A66G it is 1.9.

Turning to C6A A60G G75A U130C, the self-cleavage turned out to be 0.06.

As for C6U U70A A78G U108A, the self-cleavage came to 0. Turning to G8C U43C U100C A111C, the self-cleavage is 0.01. The figure for U9A A33C U103C is 1.2; for G7C C42A A52G it is 1.25.

U9A A47G G75A A96G U97C U108G: the self-cleavage was 0.02. Consider C6U U43C A54G U87C U103C, for which the self-cleavage was determined as 0.6.

Turning to A5U U9C A22G U57C U103C, the self-cleavage is 0.24.

A5G G29A A89G U100A A125G: the self-cleavage is 0.4. Turning to A5U A55G U103C A129U, the self-cleavage is 0.6. For the variant C6U A51G A62G U131C A134G, the self-cleavage was 1.51. In the case of A5G U43A C128U, the self-cleavage was determined as 0.97. On to A5G U70C U87C, for which the self-cleavage was 1.39. U9A U103C U127A: the self-cleavage was found to be 0.31. With A5U U9C A114U, the self-cleavage worked out at 0.11. On to G7A A60U A68G U100G A114U A116G A140G, for which the self-cleavage stood at 0.01.

For the variant G7A A27U U70C, the self-cleavage came out at 0.81. With U9A G58A A63G A92G U97C, the self-cleavage amounted to 0.66. With A5G U70A A78G, the self-cleavage came to 0.5.

C6U A82U U122C: the self-cleavage worked out at 0.1. As for G7A A56G U100C, the self-cleavage worked out at 2.6. With C6U A11G A13G A114U, the self-cleavage was 0.12. The figure for G8A A54G C101A A111G is 0.04; for A5G U39C A140G it is 1.08; for G7A U70C A96G A111U it is 0.05. For the variant A5U A22G A30G, the self-cleavage came to 0.43. A5G G20A A51G A66C: the self-cleavage came out at 0.67. Consider A5U U12C A18G U43C A62C, for which the self-cleavage came out at 1.18. The figure for A5G U12A A60G is 1.25; for G7A A82G U87G U122C it is 0.14. Take A5G G15C U57C A59G A63G A78G U100C U103C: the self-cleavage turned out to be 0.25. For A5G U57C A62U A69G U72C C76U A89U, the self-cleavage was 0.19. The figure for A5G U12C A59G U132C is 0.98; for G7A A59G U103C U120C U139C it is 0.18; for U9A A18U A56G it is 0.32. Regarding U9C A22G A94G U127C, the self-cleavage was 0.67.

For the variant G7A A22G A69G U139C, the self-cleavage was found to be 1.31. The figure for A5U A51G C61U A92G U120A is 2.44; for A5G G31A A78U it is 0.27.

On to G7U A11G U100C A125G, for which the self-cleavage was found to be 0.41. For C6U A51U A54G A60G, the self-cleavage turned out to be 0.79. For U9A U19C A95G U108C A118G A125U, the self-cleavage amounted to 0. A5U A18G C121U A129G: the self-cleavage was 1.76. For A5G U39C A62G U120A, the self-cleavage was determined as 0.78. In the case of C6U A89U A134G, the self-cleavage amounted to 1.07. Turning to A5U A47G U49A A140U, the self-cleavage was 0.6. On to A5U A18G A30G U37C G106C U108C A118G U122A, for which the self-cleavage was 0.02.

For the variant G7A A66C A89G, the self-cleavage turned out to be 0.3.

As for A5U U19C U26A A54G A89G, the self-cleavage was 0.89. For U9A A56G U57C A66U U122C, the self-cleavage worked out at 0.44. Turning to G8A A59G A117G, the self-cleavage worked out at 1.75. For G7U A27G U72C A91G, the self-cleavage amounted to 0.18. Turning to U9A A67U U120C C128U, the self-cleavage turned out to be 0.32.

For the variant U9A A111U U120C U124A, the self-cleavage turned out to be 0.03. In the case of A5U A66G A86G G99A U103C, the self-cleavage was determined as 0.04.

As for G8C A56G A62U, the self-cleavage came out at 2.32. The figure for U9A A54G G75A is 0.07; for U9C A11G A59G U130C it is 0.78.

As for G8A A82G U87C, the self-cleavage was 0.56.

As for A5G U26C U72A A129G, the self-cleavage was 0.11.

For A5G G14A A54G A64G, the self-cleavage came out at 0.9. Take U9A A22G U39C U97C A111G G123A: the self-cleavage stood at 0. Turning to C6A U72C U127C, the self-cleavage amounted to 0.15. Take G7A U43C A68G G75A: the self-cleavage is 0.12.

For the variant U9C A18U A69G U103G U132C, the self-cleavage came to 0.04. For A5U U12C G58A U120C, the self-cleavage was 2.34. With G7A G104A A116G U133C, the self-cleavage was found to be 0.02. Regarding U9A U49C A56G, the self-cleavage was 0.79. The figure for G8A U39C A62G C128U is 1.23. In the case of C6U A51U U57A A114G G137A, the self-cleavage turned out to be 0.41. As to G8A A68G U132C, the self-cleavage turned out to be 1.62. Turning to U9A A47G A60U A92G A94G C101U A114G, the self-cleavage turned out to be 0.09. For the variant A5G U57C C128A, the self-cleavage is 0. With A5G U38C A59G A62G U87A, the self-cleavage was found to be 0.76. Regarding G8A A24G G50U A78U A86G, the self-cleavage came out at 0.17. U9A G136U A140G: the self-cleavage amounted to 1.62. As for A5G U43C A55U, the self-cleavage was 0.18.

As for G7A A18U A24U, the self-cleavage stood at 0.82. Turning to U9A U37C A59U A96G, the self-cleavage stood at 1.12. Regarding G8A A30G U49A, the self-cleavage is 2.02.

With U9A A36G G74A C81A, the self-cleavage stood at 0.19. With A5G U108C A135U, the self-cleavage amounted to 0.04. Consider G7U A36U A110G G136A, for which the self-cleavage came out at 0.25. For the variant U9C A18G C40U A54G U102C, the self-cleavage is 1.94. Next, G8C A64G A82G A111G: 0.09. The figure for G7A A118G U131C is 0.7. Take A5G G14A A118G: the self-cleavage was found to be 0.65. The figure for C6A A94G A116U is 0.02; for U9C A18G A66G A86G it is 1.41; for U9C A23G A27G A89U it is 0.78. As to G7U A51G U100C, the self-cleavage was found to be 2.22. Next, C6A G7C A78U: 0.68. As for G7A U19C A55G A59G A69G A140G, the self-cleavage stood at 0.63. As to U9A U122C U131C, the self-cleavage turned out to be 0.68.

On to A5G U38C A62G U102A, for which the self-cleavage amounted to 0.65. Consider U9A A94U U103C A114G, for which the self-cleavage is 0.19. G7A A24C U39C A69G: the self-cleavage turned out to be 1.14. As for U9A A33G U43A U49C, the self-cleavage turned out to be 0.12. Next, U9A U122C U132C: 0.89; A5U A52G A78C: 0.12.

In the case of U9A U38C U87C C113U U132C U139C, the self-cleavage amounted to 0.05. For U9A C32U C81U U102C U132C, the self-cleavage came to 0.49. U9A A22G A33C A47U A66G A82G U87C: the self-cleavage amounted to 0.39. In the case of G8A G73U A78G A117G U131C, the self-cleavage is 0.12. U9A A60U A96G A116G: the self-cleavage amounted to 1.08. Turning to C6U A22G A30G A64G, the self-cleavage was found to be 0.91.

For the variant U9C A22G A30U A68G A98U U122C, the self-cleavage is 1.24.

With U9A U102A G106A U130C, the self-cleavage was found to be 0.01. Regarding U9A A111G A116G U127C, the self-cleavage turned out to be 0.01.

A5G U39A A55G A82G A96U U102C: the self-cleavage came out at 0.7. Take G7A C88U G136A: the self-cleavage came out at 1.75. For the variant G7A A62G A67G A69G U72C U97A U120C, the self-cleavage came to 0.08. The figure for C6U G28C A36G is 2.16; for U9A U38G U72A A95G A111G it is 0.04; for C6U U72C A95G A140G it is 0.9.

For the variant A5G U9A U120C, the self-cleavage amounted to 0.55.

As to G7A G14A A94G, the self-cleavage came out at 1.17.

Regarding A5G U57C G137A, the self-cleavage was 1.78. Turning to A5U A60G U87C U102C A114G, the self-cleavage worked out at 0.04.

As for G7A A69G U72C A110G, the self-cleavage was 0.
